This assay has as its system NCI-H322M lung. The experiment in a line: NCI tumour cell line growth inhibition, 48 h.

Values joined by “and” are separate entries in the source; they are usually repeats but may differ in a detail not shown here. Equal values may be shown once.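 A five-concentration, 48-hour dose response in 96-well plates underlies each endpoint, interpolated linearly between surrounding concentrations. GI50 marks 50% less growth. The concentration for full growth arrest is given as TGI.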

Compound `COc1cc(N=Nc2cccc(S(=O)(=O)O)c2)c(C)cc1N=Nc1ccc(/C=C/c2ccc(N=[N+]([O-])c3ccc(/C=C/c4ccc(N=Nc5cc(C)c(N=Nc6cccc(S(=O)(=O)O)c6)cc5OC)cc4)c(S(=O)(=O)O)c3)cc2S(=O)(=O)O)cc1` displayed a TGI of over 100 µM.
For the compound `C=C[C@]1(C)CC[C@]2(C)C(CC[C@@]3(C)C2C[C@H](O)[C@H](O)[C@@]3(C)O)C1` (some centres not stated), the TGI was over 100 µM.
Regarding `COc1ccc(/C=C\c2cc(OC)c(OC)c(OC)c2)cc1OP(=O)(O)O`, the TGI was > 100 µM and 50 µM and > 88.8 µM.
In turn, `O=C1CCC2(CC1)Cc1ccccc1C2O` (configuration not stated) displayed a TGI of over 100 µM.
On the same count and under the same terms, next, `O=c1c(Cc2ccc(Cl)cc2)nnc2sc(-c3ccc([N+](=O)[O-])cc3)nn12`: over 100 µM; `O=CNc1cccc2c3c([nH]c12)CCCCCC3`: over 100 µM.
The same measure, in the same setting: next, `Cc1ccc(NC(=O)CCC(=O)C2CC(=O)CC/C2=N\NC(=O)c2cc3ccccc3cc2O)cc1C` (configuration not stated): over 100 µM; `CC(=O)N(C(C)=O)n1c(Cc2ccc(Cl)cc2)nn(C(C)=O)c1=O`: over 100 µM; `C/C(=N\N(C)C)C(CN(C)C)C(c1ccccc1)c1c(O)c2ccccc2oc1=O` (configuration not stated): over 100 µM.
On the same count and under the same terms, next, `CC1CN=C(c2cccc(OCc3ccc(COc4cccc(C5=NCC(C)N5)c4)cc3)c2)N1` (configuration not stated): over 100 µM.
As to `O=c1oc(-c2ccc(O)c(O)c2)cc2cc(O)cc(O)c12`, the GI50 was 32 µM and the TGI was over 100 µM.
`CC(=O)N[C@@H](Cc1ccc(O)cn1)C(=O)NCc1ccc2c(c1)OCO2` registered a TGI of over 100 µM.
Turning to `CC(=O)NC1C(OCc2ccccc2)OC(COC(=O)CCCCCCCCCCNC(=O)c2cccc3c(=O)c4ccccc4[nH]c23)C(O)C1OC(C)C(=O)NC(C)C(=O)NC(CCC(N)=O)C(N)=O` (configuration not stated), the TGI is over 100 µM.
Compound `O=C1c2cc(Cl)ccc2-n2c(noc2=O)C2CSCN12` (configuration not stated) showed a TGI of over 100 µM.
In the case of `CC(C)(C)OC(=O)NC(Cc1ccccc1)C(=O)N[C@H]1c2ccsc2/C(=N/O)[C@H]1O` (some centres not stated), the TGI is over 100 µM.
Consider `O=C(Cn1c2ccc(Br)cc2c2nc3ccccc3nc21)NC1CCCCC1`, for which the TGI is over 100 µM.
With `CC(C)=CCN(N=O)c1ncnc2nc[nH]c12`, the TGI is over 100 µM.
`c1ccc(SCCCC(Sc2ccccc2)Sc2ccccc2)cc1` came in with a TGI of over 100 µM.
Regarding `CC(CC(=O)O)(CC(=O)O)C(=O)O`, the TGI was over 100 µM.
As to `CC(=O)[CH-]C(=O)c1ccccc1.CC(=O)[CH-]C(=O)c1ccccc1.[O]=[U+2]=[O]`, the GI50 was 44.6 µM and the TGI is over 100 µM.
`CN(C)c1ccc(C(=NNC(=O)c2cc3ccccc3[nH]2)c2ccc(N(C)C)cc2)cc1` yielded a TGI of over 100 µM.
`CC(CS(=O)(=O)Cc1ccccc1)C(N)=O` (configuration not stated): the TGI is over 100 µM.
On to `COc1cc(C2C(Cl)C(=O)N2c2ccc(Br)cc2)cc(I)c1O` (configuration not stated), for which the TGI is over 100 µM.
As for `O=C1c2ccccc2S(=O)(=O)c2ccccc21`, the TGI is over 100 µM.
Same read-out and setting: the result for `CC(C)(CN1CCCCC1)C(=O)CC(SCCS(=O)(=O)O)c1ccc(Br)cc1` (configuration not stated) reads 9.08 µM.
On to `c1ccc2c(c1)nc(NCCN1CCNCC1)c1c3ccccc3[nH]c21`, for which the GI50 is 0.4 µM and the TGI was determined as 2.59 µM.
Turning to `COc1ccc(C2CC(c3c(C)nn(-c4ccccc4)c3-c3ccc(C)cc3O)=NN2c2ccccc2)cc1` (configuration not stated), the TGI was over 100 µM.
Take `Cc1nc2c(n1Cc1ccc(Cl)cc1)C(=O)c1ccccc1C2=O`: the TGI is over 75 µM.
`CCOC(=O)C1C/C(C)=C(/C)SCCCS1` (configuration not stated) came in with a TGI of over 100 µM.
`Oc1ccc(-c2c3c(nc4c2CCc2ccc(Br)cc2-4)-c2cc(Br)ccc2CC3)cc1`: the TGI stood at 34.4 µM.
In turn, `CCCCCCCCCCCCCCCCP(=O)(O)OP(=O)(O)OCC1OC(n2ccc(N)nc2=O)C(O)C1O` (configuration not stated) had a TGI of over 100 µM.
Take `Cc1ccc2c(c1)c(=O)c1c(NCCN(C)C)ccc3nnn2c31`: the TGI came to 8.1 µM.
The compound `C/C(=N\NS(=O)(=O)c1ccc(C)cc1)c1ccc[n+]([O-])n1` registered a TGI of over 100 µM.
Still for that read-out and setting: the result for `O=C1[C@H]2C(c3ccccc3)=NN(C(=O)c3ccccc3)[C@H]2C(=O)N1c1ccccc1` reads over 100 µM; that for `COC(=O)/C(C#N)=C1\N=NNN1CCCN1CCOCC1`, over 100 µM.
Take `Cc1ccc(C2=Nc3c(N)ncnc3NC(c3cccc(Nc4ccnc5cc(C(F)(F)F)ccc45)c3)C2)cc1` (configuration not stated): the GI50 is 5.21 µM and the TGI was over 100 µM.
`C=C1C(=O)O[C@H]2C1[C@H](OC(=O)/C(C)=C\COC(C)=O)C[C@]1(CO1)[C@@H]1[C@H](O)[C@H]3O[C@@]3(C)[C@@H]12` (some centres not stated) gave a TGI of over 100 µM.
With `O=C1c2ccccc2-c2ccc(NC(=O)C3CCCCC3C(=O)O)cc21` (configuration not stated), the TGI was over 100 µM.
For the compound `COc1ccccc1Cn1cc2c(c1)-c1oncc1CC2`, the GI50 is 0.493 µM and the TGI was over 84.5 µM.
As for `Cc1nn(-c2ccccc2)c2c1C1C(=C(c3ccc(Cl)cc3)N2)C(=O)Nc2ccccc21` (configuration not stated), the GI50 was 3.14 µM and the TGI was over 100 µM.
With `COc1cc2c3c(c1OC)-c1ccccc1C(C(OC(C)=O)c1ccccc1)C3N(C)CC2` (configuration not stated), the TGI was over 100 µM.
As for `Cc1ccc(-c2cc(-c3ccc(Cl)cc3)nc(/N=C3\C(=O)N(CN4CCCCC4)c4ccc(Cl)cc43)n2)cc1`, the TGI is over 100 µM.
As for `CC(C)(C)n1cc(-c2ccnc(NCCNS(=O)(=O)c3ccc(Br)cc3)c2)c(-c2cccc(O)c2)n1`, the GI50 was 2.27 µM and the TGI amounted to 6.36 µM.
On to `CN1CCCC1c1cccnc1.O=C(O)c1ccccc1O.O=C([O-])c1ccccc1[OH2+].O=C([O-])c1ccccc1[OH2+].O=C([O-])c1ccccc1[OH2+].[Mn+2]` (configuration not stated), for which the GI50 is over 100 µM and the TGI is over 100 µM.
Turning to `Cc1nnc2n1N=C(CC(=O)c1ccc(O)cc1O)CN2N`, the TGI is over 100 µM.
For `CC[C@@]1(OC(=O)CN)C(=O)OCc2c1cc1n(c2=O)Cc2cc3cc(N)ccc3nc2-1`, the GI50 is 0.0434 µM and the TGI is over 100 µM.
`COc1cc(C2SCC(=O)N2NC(=O)c2ccc(NC(C)=O)cc2)cc(OC)c1OC` (configuration not stated): the TGI was over 100 µM.
As for `CCC1OCCN1C(C)C` (configuration not stated), the TGI was over 100 µM.
On the same count and under the same terms, the result for `CC1=NN(C(=O)CC(=O)Nc2cccc(Cl)c2)C(=O)C1N=Nc1ccc(S(N)(=O)=O)cc1` (configuration not stated) reads over 100 µM.
Still for that read-out and setting: the result for `CC1=NN(c2nc(N)nc(/C(C#N)=C/c3ccncc3)n2)C(C)(C)C1` reads over 100 µM; that for `Cn1c(N)c(/C=N/NC(=O)CC#N)c(=O)n(C)c1=O`, over 100 µM.
Turning to `O=C1/C(=C/c2ccccc2S)N=C(c2ccccc2)N1c1ccc2c(c1)Sc1cc(N3C(=O)/C(=C/c4ccccc4S)N=C3c3ccccc3)ccc1N2`, the TGI was 32.4 µM.
On the same count and under the same terms, the result for `COc1cc2ccn3c4cc(OC)c(OC)cc4cc3c2cc1OC` reads over 100 µM; that for `COc1ccccc1C(=O)c1c(N2CCCCC2)c(=O)c1=O`, over 100 µM.
On to `Brc1ccc(N2C[N+](c3ccc(Br)cc3)=NC(c3ccccc3)=N2)cc1`, for which the TGI is 35 µM and > 100 µM.
On to `Cc1ncc([N+](=O)[O-])n1CCN=[N+]=[N-]`, for which the TGI is over 100 µM.
The compound `NC(N)=N/N=C(\c1ccc(Cl)cc1)C1CC1` displayed a TGI of 67.7 µM.
Same read-out and setting: the result for `Cc1cs/c(=N\C(P(=O)(O)O)P(=O)(O)O)n1C` reads over 100 µM; that for `COc1cc2oc3ccccc3c(=O)c2cc1CSc1ccccc1N`, over 87.1 µM.
In turn, `CCCCCCCCCCCCCCCCOCC(CC(F)(F)P(=O)(O)O)OC(C)=O` (configuration not stated) gave a TGI of over 50 µM.
Turning to `O=C(N[C@@H]1CCCc2ccccc21)[C@H](CCC(=O)N1CCN(C2CCCCC2)CC1)N1C(=O)[C@@H](N2C(=O)OC[C@@H]2c2ccccc2)[C@H]1/C=C/c1ccccc1`, the GI50 is 1.33 µM and the TGI was 52.7 µM.
`CSc1c(C(C)=O)c(O)n(-c2ccc(Cl)cc2)c(=O)c1C#N` registered a TGI of over 100 µM.
In turn, `Cn1c(=O)c2c3oc(=O)cc(O)c3c(=O)n3c4ccccc4n(c1=O)c23` showed a TGI of over 100 µM.
`O=c1oc2ccccc2cc1-c1nc2ccc([N+](=O)[O-])cc2o1` displayed a TGI of over 100 µM.
Compound `COC(=O)C12CC(C3CC31)C1CC12` (configuration not stated) showed a TGI of over 100 µM.
`COc1ccc2nc3ccc(OC)cc3c(SCCCN)c2c1`: the GI50 was 13.3 µM and the TGI amounted to 27.6 µM.
Turning to `O=C1NC(=O)/C(=C\c2ccncc2)N1`, the TGI was over 100 µM.
Take `COC(=O)c1cc(Nc2ccc(O)c3c2C(=O)c2c([N+](=O)[O-])ccc(O)c2C3=O)cc(C(=O)OC)c1`: the GI50 is 3.46 µM and the TGI amounted to 12.3 µM.
As for `COC(=O)c1c(C)oc2ccc(OC(C)=O)cc12`, the TGI is over 100 µM.
With `COc1ccc(C2=CC(c3cc(OC)c(OC)c(OC)c3)n3ncnc3N2)cc1` (configuration not stated), the GI50 was 0.0953 µM and the TGI is over 100 µM.
In turn, `CCOC(=O)CCC(NC(=O)OCc1ccccc1)C(=O)NNC(=O)OC(C)(C)C` (configuration not stated) registered a TGI of over 100 µM.
With `O=C1c2cccnc2C(=O)c2c1c(C(=O)OCCCN1CCOCC1)c1ccccn21`, the GI50 is under 0.0111 µM and the TGI stood at 1.62 µM.
`CC1=NN(c2ccc(C)cc2)C2(C1)SCC(=O)N2c1nc2ccccc2s1` (configuration not stated) gave a TGI of over 100 µM.
Consider `CC1OC(=O)N(CCCC=C2SCCCS2)C1=O` (configuration not stated), for which the TGI is over 100 µM.
Turning to `Cc1[nH]c(=O)nc(N/N=C/c2ccc(Cl)c(Cl)c2)c1C(=O)Nc1ccc(Cl)c(Cl)c1`, the TGI is over 52.5 µM.
`C=C(CCOC)CCC1CCCCC(=C)C1=O` (configuration not stated) yielded a TGI of over 100 µM.
In the case of `Cc1ccc(Nc2nc(=O)[nH]c(=O)[nH]2)cc1N`, the TGI is over 100 µM.
For `Cn1c(=O)n(-c2ccc(C(C)(C)C#N)cc2)c2c3cc(-c4cnc5ccccc5c4)ccc3ncc21`, the GI50 was 0.0128 µM and 0.00628 µM and < 0.01 µM.

The values are drawn from PubChem BioAssay (NCI).
